# Assay results from PubChem BioAssay AID588342 (National Center for Advancing Translational Sciences (NCATS), 2011).
# The campaign covered roughly 360,000 compounds. About 25,000 (6.9%) were called active. Inconclusive results, whose numbers are uncertain, are shown with a selection of clear calls. Calls come from the whole dose curve; as a rule, active = well fitted inhibition curve with a large enough effect; inconclusive = small, poorly fitted or top-dose-only effect; inactive = flat fitted curve, though single readings scatter. Potencies of inconclusive entries are doubtful fits and often do not repeat.
# Molecular target: Luciferin 4-monooxygenase (Photinus pyralis) (UniProt P08659)
# Test: qHTS profiling assay for firefly luciferase inhibitor/activator using purifed enzyme and Km concentrations of substrates (counterscreen for miR-21 project); note: nearly all actives have a fitted effect of over 55% in size;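 for activity change, negative = inhibition: plate controls were vehicle for no effect and reference inhibitor for full effect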
# Conditions: purified FLuc, luminescence inhibition; activity change, negative = inhibition: at 57.5 µM (top of the series)
# Summary of the method: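 Purified P. pyralis luciferase, 10 nM final, with Km-level 10 uM D-luciferin and 10 uM ATP in 50 mM Tris acetate pH 7.5, 10 mM Mg acetate, 0.01% Tween-20, 0.05% BSA; 6-point qHTS titration about 60 µM downward; luminescence read.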
# Potency is the fitted concentration of half-maximal effect; tags give direction and shape of the fitted curve.
# Sequence of UniProt P08659 (P08659 whole entry, looked up): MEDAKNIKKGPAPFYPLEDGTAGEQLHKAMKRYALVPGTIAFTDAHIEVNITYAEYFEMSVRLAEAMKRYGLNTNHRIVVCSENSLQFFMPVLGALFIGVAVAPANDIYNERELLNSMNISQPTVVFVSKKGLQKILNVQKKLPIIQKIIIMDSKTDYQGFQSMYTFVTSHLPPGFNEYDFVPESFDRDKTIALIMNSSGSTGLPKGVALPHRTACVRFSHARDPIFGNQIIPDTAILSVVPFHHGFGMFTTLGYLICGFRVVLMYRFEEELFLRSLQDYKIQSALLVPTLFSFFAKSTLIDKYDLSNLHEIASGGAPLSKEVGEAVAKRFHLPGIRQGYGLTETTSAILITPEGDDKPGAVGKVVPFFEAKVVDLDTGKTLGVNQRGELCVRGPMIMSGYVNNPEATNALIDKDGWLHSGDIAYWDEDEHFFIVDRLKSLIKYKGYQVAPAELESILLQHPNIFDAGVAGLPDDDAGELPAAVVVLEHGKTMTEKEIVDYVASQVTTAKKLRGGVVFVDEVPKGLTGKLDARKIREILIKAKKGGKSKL
SMILES,Potency,"activity change, negative = inhibition"
COc1cccc(/C=N/N2CCN(Cc3ccccc3)CC2)c1O,"inconclusive: 19 µM [inhibitor, partial curve]",–
Nc1ccc(SCC(=O)Nc2cccc([N+](=O)[O-])c2)cc1,"inconclusive: 13.5 µM [inhibitor, partial curve]",–
Cc1cc(N2CCN(C)CC2)nc2ccc(NC(=O)Nc3ccccc3Cl)cc12,active: 1.69 µM,–
CCN(CC)S(=O)(=O)c1ccc(OC)c(NC(=O)c2cc3c(=O)n4ccccc4nc3s2)c1,–,inactive: 2.52%
O/N=C(/CCc1ccccc1)c1ccc2c(c1)OCCO2,active: 13.5 µM,–
CCOC(=O)Nc1ccc2c(c1)N(C(=O)N(C)C)c1ccccc1CC2,"inconclusive: 30.1 µM [inhibitor, single point]",–
CC(=O)Nc1ccc(-c2csc(NC=C3C(=O)OC(C)(C)OC3=O)n2)cc1,"inconclusive: 37.9 µM [inhibitor, partial curve, poor fit]",–
CCOc1ccccc1NS(=O)(=O)c1c(C(=O)OC)sc2cccc(F)c12,–,inactive: -10.5%
COc1ccc(OC)c(CCNC(=O)c2sc3nc4n(c(=O)c3c2C)CCCC4)c1,–,inactive: 0.348%
O=c1/c(=C/c2ccc([N+](=O)[O-])cc2)sc2n1CCCN=2,"inconclusive: 9.53 µM [inhibitor, partial curve]",–
COc1ccc(N(C(=O)c2ccccc2C)S(=O)(=O)c2ccc3c(c2)n(C)c(=O)n3C)cc1,–,inactive: -0.1%
CC(=O)Nc1ccc(NC(=O)C(C)OC(=O)c2ccc(N(C)C)cc2)cc1 (stereo not drawn),"inconclusive: 19 µM [inhibitor, partial curve, poor fit]",–
O=c1cc(-c2ccc(O)c(O)c2)oc2c1ccc1ccccc12,"inconclusive: 30.1 µM [inhibitor, single point]",–
CCN(CC)c1ccc(/C=N/NC(=O)c2cccc(S(=O)(=O)N3CCOCC3)c2)cc1,"inconclusive: 13.5 µM [inhibitor, partial curve]",–
COc1cc2c(cc1NC(=O)C(C)Oc1ccc(Cl)cc1Cl)oc1ccccc12 (stereo not drawn),–,inactive: 2%
CCc1ccc(OCC2c3cc(OC)c(OC)cc3CCN2C(=O)Cc2ccc(OC)c(OC)c2)cc1 (stereo not drawn),–,inactive: 0.234%
CCOC(=O)/C(C#N)=C/c1ccc(N2CCN(C)CC2)cc1,active: 26.9 µM,–
COc1cc(-c2nnc(SCC(=O)N(C)C3CCCCC3)o2)cc(OC)c1OC,"inconclusive: 19 µM [inhibitor, partial curve]",–
CN(C)c1ccc(C=Nc2cnn(C)c2C(N)=O)cc1,active: 4.78 µM,–
Cc1c(C(=O)N2CCC(C(N)=O)CC2)oc2ccc(Br)cc12,"inconclusive: 30.1 µM [inhibitor, partial curve, poor fit]",–
CSc1ccccc1NC(=O)COc1ccc(Cl)cc1Cl,"inconclusive: 26.9 µM [inhibitor, partial curve]",–
N/C(=N\OC(=O)Nc1ccccc1)c1cccc(C(F)(F)F)c1,"inconclusive: 21.3 µM [inhibitor, single point]",–
COc1ccc(-c2noc(CSc3nnc(-c4ccncc4)n3-c3cccc(C)c3)n2)cc1OC,–,inactive: 0.561%

SMILES,Potency,"activity change, negative = inhibition"
COc1ccccc1C(=O)NNC(=O)c1ccc2ccccc2c1,active: 12 µM,–
COCCCn1c(=S)[nH]c2sc3c(c2c1=O)CCCC3,active: 19 µM,–
CC(=O)Nc1ccc(-c2nnc3n(CC(C)C)c(=O)c4ccccc4n23)cc1,–,inactive: -10.6%
Cc1cc2nc3c(nc2cc1C)CCCC3,"inconclusive: 23.9 µM [inhibitor, single point]",–
CC(=O)NCC(=O)NC1CCCc2c1cnn2-c1ccc(C(C)(C)C)cc1 (stereo not drawn),"inconclusive: 37.9 µM [inhibitor, partial curve, poor fit]",–
O=C(NCc1ccccc1F)c1cccc(NC(=O)N2CCSc3ncccc32)c1,–,inactive: 5.98%
Cc1ccc(-c2cc(NC(=O)COc3c(C)cc(C)cc3C)on2)cc1,"inconclusive: 9.53 µM [inhibitor, partial curve, poor fit]",–
CC1(C)CC(=O)C=C(c2ccc3ccccc3c2)C1,"inconclusive: 12 µM [inhibitor, single point]",–
O=C(Nc1cccc(C(=O)O)c1)/C(=C\c1ccc2c(c1)OCO2)NC(=O)c1ccc(Br)cc1,"inconclusive: 23.9 µM [inhibitor, partial curve, poor fit]",–
O=C(Cc1ccc(F)cc1)Nc1cccc(-c2cn3c(n2)SCC3)c1,"inconclusive: 23.9 µM [inhibitor, single point]",–
CC1CN(C(=O)c2cc(-c3ccc(Cl)s3)nc3ccccc23)CC(C)O1 (stereo not drawn),"inconclusive: 3.79 µM [inhibitor, partial curve, poor fit]",–
c1ccc(SCCN2CCN(c3ccccc3)CC2)cc1,"inconclusive: 30.1 µM [inhibitor, partial curve, poor fit]",–
COc1ccc(Br)cc1CNC(=O)Cc1c(C(=O)O)[nH]c2ccc(Cl)cc12,"inconclusive: 26.9 µM [inhibitor, single point]",–
CCOc1ccc(C2NC(=S)NC3=C2CCc2ccccc23)cc1 (stereo not drawn),active: 21.3 µM,–
O=C(N/N=C\c1c(O)ccc2ccccc12)c1ccc(O)cc1,active: 12 µM,–
COc1ccc(NC(=O)c2ccc(CN3CCc4ccccc4C3)cc2)cc1OC,"inconclusive: 21.3 µM [inhibitor, partial curve, poor fit]",–
O=C(NCc1cccc(Cl)c1)c1oc(=O)c2ccccc2c1-c1ccccc1,–,inactive: 0.905%
O=C(CCCC(=O)N1CCN(c2cccc(Cl)c2)CC1)c1ccccc1,"inconclusive: 26.9 µM [inhibitor, single point]",–
COc1cc(/C=N/Nc2ccc(Cl)c(C(=O)O)c2)ccc1OCC(=O)N1C(C)CCCC1C (stereo not drawn),"inconclusive: 37.9 µM [inhibitor, single point]",–
COc1ccc(CCC(=O)Nc2nc(-c3ccncc3)cs2)cc1,"inconclusive: 33.8 µM [inhibitor, partial curve, poor fit]",–
COc1cccc(C(=O)NCCS(=O)(=O)NCCc2ccccc2)c1,"inconclusive: 30.1 µM [inhibitor, single point]",–
CCC(C)c1ccc(NC(=O)CSc2nncn2N)cc1 (stereo not drawn),"inconclusive: 26.9 µM [inhibitor, single point]",–
Cc1ccccc1Cc1c(C)nc2c(-c3ccccc3)c(C)[nH]n2c1=O,"inconclusive: 21.3 µM [inhibitor, partial curve, poor fit]",–

SMILES,Potency,"activity change, negative = inhibition"
Cc1ccc(NC(=O)Cc2nc(CSc3nnc(-c4ccc5c(c4)OCO5)o3)cs2)cc1,active: 8.49 µM,–
CCN(CC)CCNc1nc(-n2nc(C)cc2C)nc2sc3c(c12)CC(C)(C)OC3,"inconclusive: 37.9 µM [inhibitor, partial curve, poor fit]",–
COc1cc([N+](=O)[O-])ccc1NC(=S)NNC(=O)c1ccc2c(c1)OCO2,"inconclusive: 21.3 µM [inhibitor, single point]",–
O=c1c(O)c(-c2ccc3c(c2)OCO3)oc2ccccc12,"inconclusive: 8.49 µM [inhibitor, partial curve, poor fit]",–
COc1cc(C(=O)OCC(=O)Nc2cc(S(=O)(=O)N3CCOCC3)ccc2C)ccc1OCC(C)C,"inconclusive: 26.9 µM [inhibitor, single point]",–
CCn1c(=O)cc(OCC(=O)Nc2ccc3c(c2)OCCO3)c2ccccc21,"inconclusive: 37.9 µM [inhibitor, single point]",–
COc1cccc(N2CC(C(=O)Nc3nnc(SCC(=O)Nc4ccc(NC(C)=O)cc4)s3)CC2=O)c1 (stereo not drawn),–,inactive: -15.6%
CCN1CCN(c2nc(Nc3ccc(NC(C)=O)cc3)nc(Nc3ccc(NC(C)=O)cc3)n2)CC1,"inconclusive: 23.9 µM [inhibitor, single point]",–
COc1cc(/C=C2\C(=O)NN(c3ccccc3)C2=O)cc([N+](=O)[O-])c1O,"inconclusive: 19 µM [inhibitor, partial curve]",–
CC(=O)c1cccc(Nc2cc(C)nc3nc(-c4ccccc4C)nn23)c1,active: 19 µM,–
Cc1sc2ncn(CC(=O)NCc3ccco3)c(=O)c2c1-c1ccccc1,–,inactive: 1.9%
CCOC(=O)C/C(C)=N/NC(=O)Nc1ccccc1,"inconclusive: 37.9 µM [inhibitor, partial curve, poor fit]",–
COc1cc(C(=O)O)cc(NC(=O)c2cccs2)c1OC,"inconclusive: 33.8 µM [inhibitor, single point]",–
CCOc1cc(/C=N/O)ccc1OCc1ccc(F)cc1,"inconclusive: 26.9 µM [inhibitor, partial curve, poor fit]",–
COc1ccc(C2N(Cc3ccccc3)CC(=O)N2/N=C(\C)c2ccccc2)cc1 (stereo not drawn),"inconclusive: 10.7 µM [inhibitor, partial curve]",–
Cc1cccc(NCc2nc(-c3ccccc3)no2)c1,"inconclusive: 37.9 µM [inhibitor, partial curve, poor fit]",–
COc1cccc(C(=O)Nc2nnc(-c3ccccc3)s2)c1OC,active: 12 µM,–
COc1ccc(-c2noc(-c3cc(C(C)C)[nH]n3)n2)cc1,active: 21.3 µM,–
Cc1ccc(NCc2n[nH]c(=S)n2-c2cccc(Cl)c2)cc1,"inconclusive: 16.9 µM [inhibitor, partial curve]",–
CC(=O)c1cc2c(cc1NC(=O)CSc1nc3ccccc3o1)OCO2,–,inactive: -0.458%
COc1ccc(C(=O)OCC(=O)c2ccc(Br)s2)c(OC)c1,"inconclusive: 21.3 µM [inhibitor, partial curve]",–
COc1cc(C2Nc3ccccc3-c3nnc(SCc4ccc(Cl)cc4)nc3O2)ccc1OCC(=O)O (stereo not drawn),"inconclusive: 16.9 µM [inhibitor, partial curve]",–
